Results published in paper PMC8115599, “Mechanism of MRX inhibition by Rif2 at telomeres” (Nature Communications, 2021).
Substitutions are numbered along the chain they refer to. Names and notes keep the numbering of the source. Results are given in words; binding and its absence hold for the method and conditions named. Some binding calls cover weakened binding; strength is not graded here. For some of these results: Sequences can lack the tags named with a protein. Values belong to the binder of their own block, whether it stands above or below them.

Key:
GST-Rif2_(1-60) = target: T1, GST-Rif2_(1-60) (S. cerevisiae, UniProt Q06208 1-60); assay: pull-down; GST-Rif2_(1-60), its F8A mutant or GST (10 µg) immobilised on Glutathione Sepharose 4B; Rad50∆CC (30 µg) added in 100 µL 50 mM Tris HCl pH 8, 150 mM NaCl, 1 mM DTT, 0.5 mM EDTA, 10% glycerol, 2 mM MgCl2, benzonase; 120 min at 4 °C; glutathione elution, SDS-PAGE, silver staining; both purified
T1 construct: Rif2, S. cerevisiae, residues 1-60; also called GST-ScRif2_(1-60); Rif2 BAT; source: E. coli BL21 (DE3), purified (GSH Sepharose, Hitrap Heparine)
T1 sequence (looked up): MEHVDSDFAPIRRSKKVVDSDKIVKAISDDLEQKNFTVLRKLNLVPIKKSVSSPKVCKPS

[1] = target: T2, GST-Rif2_(1-60)-F8A (S. cerevisiae) (UniProt Q06208); assay: as above
T2 sequence: T1 sequence (looked up) with F8A

[2] = target: T3, Gal4DBD-Rif2 minimal active motif of 26 residues (1-26) (S. cerevisiae) (UniProt Q06208); assay: two-hybrid; strain Y190, growth on synthetic glucose plates with adenine and 3-AT (25 and 50 mM); Gal4DBD-Rif2 fragments against pACT2-RAD50 and its derivatives, Rap1 366-827 or Mre11; WT cells, also cells lacking Mre11 and Xrs2 or the endogenous Rad50
T3 sequence: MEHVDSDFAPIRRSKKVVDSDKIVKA

[3] = target: T4, Gal4DBD-Rif2_(1-36) (Rif2 BAT motif) (S. cerevisiae) (UniProt Q06208); assay: as above
T4 sequence: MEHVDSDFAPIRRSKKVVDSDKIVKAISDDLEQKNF

[4] = target: T5, full-length Mre11 (S. cerevisiae) (UniProt P32829); assay: as above
T5 sequence: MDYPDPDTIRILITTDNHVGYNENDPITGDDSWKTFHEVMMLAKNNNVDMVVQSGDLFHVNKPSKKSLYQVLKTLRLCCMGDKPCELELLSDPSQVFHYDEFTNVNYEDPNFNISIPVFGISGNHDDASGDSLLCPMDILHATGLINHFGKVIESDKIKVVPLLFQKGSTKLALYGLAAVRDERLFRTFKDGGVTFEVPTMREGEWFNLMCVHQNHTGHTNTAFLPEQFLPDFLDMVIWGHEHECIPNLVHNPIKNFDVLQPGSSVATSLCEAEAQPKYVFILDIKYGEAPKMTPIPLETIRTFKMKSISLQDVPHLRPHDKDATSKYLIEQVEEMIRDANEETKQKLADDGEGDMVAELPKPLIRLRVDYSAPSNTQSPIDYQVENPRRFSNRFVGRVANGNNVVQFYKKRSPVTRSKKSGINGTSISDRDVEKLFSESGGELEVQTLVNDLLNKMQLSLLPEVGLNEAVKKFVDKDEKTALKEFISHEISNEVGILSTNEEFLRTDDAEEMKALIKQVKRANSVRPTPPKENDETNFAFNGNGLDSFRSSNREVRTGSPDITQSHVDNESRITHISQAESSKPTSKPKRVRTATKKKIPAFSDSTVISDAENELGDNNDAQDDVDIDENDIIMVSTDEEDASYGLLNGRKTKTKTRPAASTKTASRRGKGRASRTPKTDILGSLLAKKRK

[5] = target: T6, Gal4DBD-Rif2_(1-60) L44A (S. cerevisiae) (UniProt Q06208); assay: as above
T6 sequence: T1 sequence (looked up) with L44A

[6] = target: T7, Gal4DBD-Rif2_(1-60) (Rif2 N-terminal region 1-60) (S. cerevisiae) (UniProt Q06208); assay: as above
T7 sequence: T1 sequence (looked up)

B1: Rad50∆CC-K81E, purified (His-SUMO tag removed) (domain or fragment, UniProt P12753 1-189; P12753 1125-1312)
chain: MSAIYKLSIQGIRSFDSNDRETIEFGKPLTLIVGMNGSGKTTIIECLKYATTGDLPPNSKGGVFIHDPKITGEKDIRAQVELAFTSANGLNMIVTRNIQLLMKKTTTTFKTLEGQLVAINNSGDRSTLSTRSLELDAQVPLYLGVPKAILEYVIFCHQEDSLWPLSEPSNLKKKFDEIFQAMKFTKALDKILCYDDIDVYSKALDSAIMKYHGLKMQDINRIIDELWKRTYSGTDIDTIKIRSDEVSSTVKGKSYNYRVVMYKQDVELDMRGRCSAGQKVLASIIIRLALSETFGANCGVIALDEPTTNLDEENIESLAKSLHNIINMRRHQKNFQLIVITHDEKFLGHMNAAAFTDHFFKVKRDDRQKSQIEWVDINRVTY
binding (GST-Rif2_(1-60)): no binding (tested: 30 µg Rad50∆CC in 100 µL)

B2: Rad50∆CC, purified (His-SUMO tag removed) (domain or fragment, S. cerevisiae)
chain: B1 chain with E81K
notes: Rad50, S. cerevisiae, N-terminal Head domain, residues 1-189; residues joining the two Head domains in the Rad50∆CC allele; Rad50, S. cerevisiae, C-terminal Head domain, residues 1125-1312; also called Rad50 ATPase Head; Rad50 Head domains; source: E. coli BL21 (DE3), purified (NiNTA, PD10; tag cleaved with His-SUMO-Protease); not shown: His6-SUMO, N-terminal, cleaved
binding [1]: no binding (tested: 30 µg Rad50∆CC in 100 µL)

binding [2]: binds
binding [3]: binds
binding [4]: binds
binding [5]: binds
binding [6]: binds
B3: full-length Rad50 (pACT2-RAD50) (protein, UniProt P12753 1-1312)
chain: MSAIYKLSIQGIRSFDSNDRETIEFGKPLTLIVGMNGSGKTTIIECLKYATTGDLPPNSKGGVFIHDPKITGEKDIRAQVKLAFTSANGLNMIVTRNIQLLMKKTTTTFKTLEGQLVAINNSGDRSTLSTRSLELDAQVPLYLGVPKAILEYVIFCHQEDSLWPLSEPSNLKKKFDEIFQAMKFTKALDNLKSIKKDMSVDIKLLKQSVEHLKLDKDRSKAMKLNIHQLQTKIDQYNEEVSEIESQLNEITEKSDKLFKSNQDFQKILSKVENLKNTKLSISDQVKRLSNSIDILDLSKPDLQNLLANFSKVLMDKNNQLRDLETDISSLKDRQSSLQSLSNSLIRRQGELEAGKETYEKNRNHLSSLKEAFQHKFQGLSNIENSDMAQVNHEMSQFKAFISQDLTDTIDQFAKDIQLKETNLSDLIKSITVDSQNLEYNKKDRSKLIHDSEELAEKLKSFKSLSTQDSLNHELENLKTYKEKLQSWESENIIPKLNQKIEEKNNEMIILENQIEKFQDRIMKTNQQADLYAKLGLIKKSINTKLDELQKITEKLQNDSRIRQVFPLTQEFQRADLEMDFQKLFINMQKNIAINNKKMHELDRRYTNALYNLNTIEKDLQDNQKSKEKVIQLLSENLPEDCTIDEYNDVLEETELSYKTALENLKMHQTTLEFNRKALEIAERDSCCYLCSRKFENESFKSKLLQELKTKTDANFEKTLKDTVQNEKEYLHSLRLLEKHIITLNSINEKIDNSQKCLEKAKEETKTSKSKLDELEVDSTKLKDEKELAESEIRPLIEKFTYLEKELKDLENSSKTISEELSIYNTSEDGIQTVDELRDQQRKMNDSLRELRKTISDLQMEKDEKVRENSRMINLIKEKELTVSEIESSLTQKQNIDDSIRSKRENINDIDSRVKELEARIISLKNKKDEAQSVLDKVKNERDIQVRNKQKTVADINRLIDRFQTIYNEVVDFEAKGFDELQTTIKELELNKAQMLELKEQLDLKSNEVNEEKRKLADSNNEEKNLKQNLELIELKSQLQHIESEISRLDVQNAEAERDKYQEESLRLRTRFEKLSSENAGKLGEMKQLQNQIDSLTHQLRTDYKDIEKNYHKEWVELQTRSFVTDDIDVYSKALDSAIMKYHGLKMQDINRIIDELWKRTYSGTDIDTIKIRSDEVSSTVKGKSYNYRVVMYKQDVELDMRGRCSAGQKVLASIIIRLALSETFGANCGVIALDEPTTNLDEENIESLAKSLHNIINMRRHQKNFQLIVITHDEKFLGHMNAAAFTDHFFKVKRDDRQKSQIEWVDINRVTY
